Results reported in the supplement of paper PMC12217912.
The other results are listed elsewhere or left out. Sequences were assembled here from the parent chain. Values near 0.05 are background.

B1: TEV protease; numbered along this chain (parent)
chain: MGESLFKGPRDYNPISSSICHLTNESDGHTTSLYGIGFGPFIITNKHLFRRNNGTLVVQSLHGVFKVKDTTTLQQHLVDGRDMIIIRMPKDFPPFPQKLKFREPQREERICLVTTNFQTKSMSSMVSDTSCTFPSGDGIFWKHWIQTKDGQCGSPLVSTRDGFIVGIHSASNFTNTNNYFTSVPKNFMELLTNQEAQQWVSGWRLNADSVLWGGHKVFMVKPEEPFQPVKEATQL

Variants of: B1
Assay: raw area under fraction-flipped curve 0-4 h after induction (AUC4h, not background-subtracted), DNA-recorder readout of cleavage of the substrate (dimensionless); higher = more cleavage of the substrate by the protease variant
Details: temperature: 34 °C; time window: 0-4 h after rhamnose induction
Method: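 In vivo DNA recorder in E. coli TOP10(DE3) ΔrhaA at 34 °C. Each TEVp single-site mutant (parent TEVp 0) is paired with a single-site variant of the 7-mer TEVs (canonical ENLYFQ|S). The substrate sits between flexible linkers in a Bxb1-sfGFP-TEVs-SsrA fusion, so cleavage stabilises Bxb1 and speeds flipping of a recombination array, read by NGS. The value is the raw area under the fraction-flipped curve over 0-4 h after rhamnose induction (AUC4h), with ≥20 reads per time point. It is not background-subtracted; inactive controls average about 0.047.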
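Also: Bxb1 expression induced with 0.2% (w/v) L-rhamnose at OD600 near 0.5, cultures sampled hourly, flipped fraction per protease–substrate barcode pair counted by paired-end Illumina sequencing.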

| Variant | area with substrate ENAYFQS | area with substrate ENCYFQS | area with substrate ENDYFQS | area with substrate ENEYFQS | area with substrate ENFYFQS | area with substrate ENGYFQS | area with substrate ENHYFQS | area with substrate ENIYFQS | area with substrate ENMYFQS | area with substrate ENNYFQS | area with substrate ENPYFQS | area with substrate ENQYFQS | area with substrate ENSYFQS | area with substrate ENYYFQS | area with substrate ENKYFQS | area with substrate ENRYFQS | area with substrate ENTYFQS | area with substrate ENVYFQS | area with substrate ENWYFQS |
| --- | --- | --- | --- | --- | --- | --- | --- | --- | --- | --- | --- | --- | --- | --- | --- | --- | --- | --- | --- |
| S135Q | 0.0603 | 0.0569 | 0.054 | 0.0556 | 0.0576 | 0.0623 | 0.0634 | 0.0637 | 0.0562 | 0.0624 | 0.0616 | 0.0404 | 0.0663 | 0.0438 | – | – | – | – | – |
| G136S | 0.0856 | 0.0727 | 0.0795 | 0.0414 | – | – | 0.0645 | – | – | 0.06 | 0.0381 | – | 0.0496 | – | 0.061 | 0.0573 | 0.0559 | – | – |
| D137E | 0.0355 | 0.0806 | 0.0421 | 0.0691 | 0.0494 | – | – | – | – | 0.0595 | 0.0571 | 0.0558 | 0.0667 | 0.066 | – | – | 0.0715 | 0.0639 | 0.0645 |
| G138D | 0.0522 | – | 0.075 | 0.069 | 0.0592 | – | – | – | 0.0426 | 0.039 | – | – | 0.0688 | – | – | 0.067 | – | – | – |
| I139E | 0.0783 | 0.0589 | 0.0522 | 0.0655 | 0.0621 | 0.0625 | 0.0607 | 0.106 | 0.0909 | – | – | – | 0.0589 | – | 0.0787 | 0.0912 | – | – | 0.0111 |
| I139H | 0.0987 | – | 0.058 | 0.0397 | 0.0946 | 0.059 | – | 0.0797 | – | 0.0603 | – | 0.0608 | 0.0578 | – | – | 0.0662 | 0.0475 | – | – |
| I139L | 0.0734 | 0.0725 | 0.0491 | 0.0554 | 0.0553 | – | 0.0512 | 0.106 | 0.0807 | – | 0.0629 | 0.0543 | 0.0581 | 0.0644 | – | 0.0538 | 0.0635 | 0.0851 | – |
| F140D | 0.0587 | 0.0634 | 0.0679 | 0.0625 | – | – | 0.0626 | – | 0.0573 | 0.0563 | – | – | 0.0668 | – | – | – | 0.0645 | 0.0586 | 0.0458 |
| F140H | 0.0667 | – | – | – | – | 0.0567 | – | – | 0.0696 | 0.0604 | – | – | 0.0185 | – | – | – | – | – | – |
| W141T | 0.053 | – | – | 0.0534 | – | 0.0638 | 0.0449 | 0.0568 | – | 0.0598 | – | 0.0549 | – | – | – | 0.048 | – | – | – |
| W141V | 0.0535 | 0.0482 | 0.07 | – | – | 0.0562 | 0.0521 | 0.07 | 0.0502 | 0.0477 | 0.0412 | 0.0703 | 0.0632 | – | 0.0736 | 0.0583 | 0.0506 | – | 0.0539 |
| W141Y | 0.0507 | – | 0.0757 | – | 0.071 | – | – | – | 0.0517 | 0.0672 | – | – | 0.0715 | – | – | 0.0531 | – | 0.0726 | – |
| K142C | 0.0648 | – | 0.0662 | 0.0611 | – | 0.0633 | 0.0512 | 0.0927 | 0.0703 | 0.0766 | – | 0.0608 | 0.0554 | 0.0713 | – | – | 0.0839 | 0.0683 | 0.0462 |
| K142V | 0.0538 | 0.0684 | 0.0681 | 0.0576 | – | 0.0631 | 0.0586 | 0.0881 | 0.113 | 0.058 | – | 0.0858 | 0.0285 | – | 0.0569 | 0.0604 | 0.0559 | – | 0.025 |
| H143M | 0.0578 | 0.0464 | 0.075 | 0.0506 | 0.071 | – | 0.0608 | 0.0685 | 0.0578 | 0.0571 | 0.0503 | 0.0624 | 0.0659 | 0.0611 | – | 0.066 | 0.0665 | 0.0537 | – |
| I145W | 0.0592 | – | – | – | 0.0536 | 0.0646 | 0.0519 | – | – | 0.0519 | – | 0.0584 | 0.0587 | – | – | 0.0467 | – | 0.0597 | 0.0142 |

| Variant | area with substrate ENAYFQS | area with substrate ENCYFQS | area with substrate ENDYFQS | area with substrate ENEYFQS | area with substrate ENFYFQS | area with substrate ENGYFQS | area with substrate ENHYFQS | area with substrate ENIYFQS | area with substrate ENMYFQS | area with substrate ENNYFQS | area with substrate ENPYFQS | area with substrate ENQYFQS | area with substrate ENSYFQS | area with substrate ENYYFQS | area with substrate ENKYFQS | area with substrate ENRYFQS | area with substrate ENTYFQS | area with substrate ENVYFQS | area with substrate ENWYFQS |
| --- | --- | --- | --- | --- | --- | --- | --- | --- | --- | --- | --- | --- | --- | --- | --- | --- | --- | --- | --- |
| Q146L | 0.084 | – | 0.0644 | – | – | – | – | – | – | – | – | – | 0.0691 | – | – | – | 0.0537 | – | – |
| T147C | 0.0426 | 0.0748 | 0.0677 | 0.0628 | 0.0633 | – | 0.0876 | 0.0668 | – | – | – | 0.0557 | – | – | – | 0.0449 | – | 0.08 | – |
| T147L | 0.0566 | 0.0629 | 0.0515 | 0.0583 | – | 0.0618 | 0.0442 | 0.0743 | – | 0.0492 | 0.0602 | 0.0538 | 0.0568 | 0.0501 | 0.0613 | 0.0583 | 0.0582 | 0.0577 | 0.0517 |
| K148D | 0.0545 | 0.0546 | 0.0543 | 0.0686 | 0.0621 | – | 0.0649 | – | – | 0.0629 | 0.0756 | 0.0628 | 0.0686 | 0.0602 | – | – | 0.0555 | – | – |
| K148S | 0.0644 | – | – | – | – | – | – | – | 0.0572 | – | 0.0742 | 0.0697 | – | – | 0.0597 | – | 0.0618 | – | – |
| K148Y | 0.0449 | – | 0.0551 | 0.0562 | – | – | – | 0.113 | – | – | 0.0826 | – | 0.069 | 0.0591 | 0.068 | – | 0.0675 | 0.0808 | – |
| D149C | 0.0678 | – | 0.0559 | 0.0499 | 0.0544 | – | – | – | – | – | 0.0596 | 0.0567 | – | – | – | – | 0.031 | 0.0654 | – |
| D149H | 0.061 | 0.0614 | 0.0599 | 0.0513 | 0.058 | 0.0561 | – | – | – | 0.0663 | 0.0545 | 0.0598 | 0.0584 | 0.0635 | – | – | 0.0599 | – | – |
| Q151A | 0.0602 | – | 0.0606 | 0.0646 | 0.0674 | – | 0.0826 | – | 0.0704 | 0.0576 | 0.0619 | 0.0556 | 0.0728 | – | 0.0484 | – | 0.0626 | – | – |
| Q151R | 0.0653 | 0.0693 | 0.0696 | – | – | 0.0702 | 0.0637 | 0.0844 | – | 0.071 | 0.0499 | 0.0593 | – | – | 0.0391 | 0.0606 | 0.058 | 0.0571 | – |
| G153E | 0.0596 | 0.0562 | – | – | – | – | – | – | – | – | 0.0503 | 0.046 | 0.0608 | – | 0.0532 | – | 0.0528 | 0.056 | – |
| S154Q | 0.0672 | 0.0617 | – | – | – | 0.0635 | – | 0.104 | 0.0956 | – | – | 0.061 | – | – | 0.0789 | 0.0655 | 0.0516 | – | – |
| P155R | 0.0241 | 0.0493 | 0.0556 | 0.0704 | 0.0167 | 0.0565 | 0.0513 | – | – | 0.064 | 0.0615 | 0.0643 | – | 0.0517 | – | 0.0517 | 0.0401 | 0.0292 | – |
| V157I | 0.0555 | – | 0.0594 | 0.0635 | 0.0813 | 0.0643 | – | 0.0631 | – | 0.0597 | – | 0.0368 | – | – | 0.0479 | 0.0637 | 0.064 | – | 0.0068 |
| V157M | 0.0578 | 0.062 | 0.0672 | 0.0643 | 0.0594 | 0.0766 | – | 0.12 | 0.0767 | 0.068 | 0.0594 | 0.0626 | 0.129 | – | 0.0665 | 0.0506 | 0.0654 | – | – |
